# Reference: publication PMC6919601, “Identification of Plasmodium dipeptidyl aminopeptidase allosteric inhibitors by high throughput screening” (PLoS ONE, 2019)
# About 230 (0.21%) of roughly 110,000 compounds showed an effect of 50% or more. This is one part of the list.
# Target: DPAP1 (Plasmodium falciparum, UniProt Q8IIJ9)
# Experiment: primary screen, percent inhibition; read by cleavage of a fluorogenic dipeptide substrate; higher = more effect of the substance
# Set-up: species or system P. falciparum D10 trophozoite lysates; single well
# 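Note: 30 min substrate incubation versus DMSO and 10 µM JCP410 controls.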
# Sequence of DPAP1 (Q8IIJ9 whole entry, looked up): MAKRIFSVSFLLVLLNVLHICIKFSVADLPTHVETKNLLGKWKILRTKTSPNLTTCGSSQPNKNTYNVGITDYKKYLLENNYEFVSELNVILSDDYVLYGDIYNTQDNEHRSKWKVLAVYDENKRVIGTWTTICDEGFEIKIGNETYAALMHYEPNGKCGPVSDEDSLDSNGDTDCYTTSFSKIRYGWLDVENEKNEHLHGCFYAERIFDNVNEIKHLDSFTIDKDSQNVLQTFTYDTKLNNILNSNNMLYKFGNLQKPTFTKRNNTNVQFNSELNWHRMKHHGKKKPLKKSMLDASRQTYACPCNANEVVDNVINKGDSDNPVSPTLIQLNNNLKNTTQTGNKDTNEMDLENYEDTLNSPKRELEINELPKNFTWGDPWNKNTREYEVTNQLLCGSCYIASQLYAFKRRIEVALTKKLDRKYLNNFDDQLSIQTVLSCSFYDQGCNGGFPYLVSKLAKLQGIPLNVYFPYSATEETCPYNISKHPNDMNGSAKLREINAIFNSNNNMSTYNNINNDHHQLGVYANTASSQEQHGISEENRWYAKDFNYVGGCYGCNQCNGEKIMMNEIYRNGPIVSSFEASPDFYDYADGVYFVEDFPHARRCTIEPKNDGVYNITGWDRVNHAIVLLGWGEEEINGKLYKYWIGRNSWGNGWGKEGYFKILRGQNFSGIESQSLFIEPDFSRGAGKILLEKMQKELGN
row,SMILES,% Inhibition @ 10 uM [%]
1,CCOC(=O)c1c(C)c(C(=O)NC2CCCCC2C)c(C)n1C (stereo not shown),1.72
2,Cc1nc2ccc(Cl)cc2c(=O)n1-c1nc2ccccc2s1,-3.18
3,COc1ccc(-c2onc(C)c2C)cc1S(=O)(=O)N1CCN(Cc2ccccc2)CC1,-1.88
4,Cc1cccnc1NC(=O)NCc1noc2ccccc12,1.41
5,COc1ccc(S(=O)(=O)NCc2ccncc2)c(Cl)c1Cl,7.67
6,Cn1nc(C(=O)NCc2ccco2)c2c1-c1ccccc1SC2,30.8
7,COc1cccc(C(=O)N2CCN(Cc3ccc(F)cc3)CC2)c1OC,1.71
8,COCCNC(=O)/C(C#N)=C/c1c(Oc2cccc(C)c2C)nc2c(C)cccn2c1=O,0.315
9,COC(=O)c1ccccc1S(=O)(=O)NCc1nc2nc(C)cc(C)n2n1,2.84
10,CC(=O)C1C(=O)C=C(c2cccs2)CC1c1ccccc1 (stereo not shown),-1.48
11,Nc1ccc(CN2C(=O)c3ccccc3C2=O)cc1,-4.02
12,O=C(Nc1ccc(F)cc1)c1cc2ccccc2o1,-0.318
13,COc1ccccc1CNC(=O)CCCc1nnc2n3nc(-c4ccccc4)nc3c3ccccc3n12,3.59
14,COC(=O)c1cc2oc3ccccc3c2[nH]1,-7.02
15,CSc1ncc(C(=O)O)c(C(F)(F)F)n1,4.87
16,COc1cc(OC)cc(C(=O)N2CCN(c3cccc(C)c3C)CC2)c1,1.83
17,COc1cc(/C=C/c2nc(C#N)c(NCC3CCCO3)o2)cc(OC)c1OC (stereo not shown),-4.39
18,CCOP1(=S)Oc2cc(Cl)ccc2C(C(F)(F)F)(C(F)(F)F)O1 (stereo not shown),1.84
19,O=C(Nc1ccc(-c2cn3cccnc3n2)cc1)c1ccccc1Cl,-5.34
20,CC(C)Sc1ncc(Cl)c(C(=O)Nc2sc3c(c2C(=O)NCc2ccco2)CCC3)n1,-1.16
21,Cc1ccc(C(=O)O/N=C(\N)CC(N)=O)cc1,-0.326
22,COc1ccc(-c2nc(CSCC(=O)NCc3ccc4c(c3)OCO4)c(C)o2)cc1,-2.85
23,CCOC(=O)N1CCC(NC(=O)C2CCN(c3nnc(-n4cccc4)s3)CC2)CC1,1.15
24,CCCCOC(=O)c1sc2nc(N)c(C#N)c(-c3ccc(OC)c(OC)c3)c2c1N,3.54
25,CC(=O)N1CCc2c(sc3nc(SCc4cc(C)ccc4C)n(Cc4ccco4)c(=O)c23)C1,2.97

row,SMILES,% Inhibition @ 10 uM [%]
1,Cc1ccc(S(=O)(=O)Nc2ccc(NC(=O)C3CC=CCC3C(=O)O)cc2)cc1 (stereo not shown),-4.21
2,Cc1[nH]nc2c1C(c1ccccc1OCc1ccccc1Cl)C(C#N)=C(N)O2 (stereo not shown),4.07
3,Clc1ccc(-c2nnc3ccc(N4CCCCC4)nn23)cc1,3.8
4,O=Cc1c(-c2ccc(F)cc2)nc2ccccn12,-2.5
5,CS(=O)(=O)C1=NSC2=NC(=O)/C(=C\c3ccc(SC4CCCCC4)o3)C(=N)N21,-1.28
6,CCOc1ccc(N2C(=O)CC(NCC3CCCCC3)C2=O)cc1 (stereo not shown),-7.22
7,COc1cc(OC)cc(-n2nnc(-c3nc(-c4cccs4)no3)c2N)c1,5.22
8,CCOc1ccc(-c2csc(C3COc4ccccc4O3)n2)cc1 (stereo not shown),-0.636
9,COc1cc(S(=O)(=O)NCCOC23CC4CC(CC(C4)C2)C3)c(C)cc1C,-1.72
10,CC(C)Cn1c2ccccc2c2cc(C(=O)O)ccc21,0.565
11,COc1ccc(-c2nnn(CC(=O)Nc3sc4c(c3C#N)CCC(C(C)(C)C)C4)n2)cc1 (stereo not shown),-7.8
12,COc1ccc(NC(=O)c2ccco2)cc1OC,-2.36
13,Cc1cc(C)c(Cn2c(CCCO)nc3ccccc32)c(C)c1,4.3
14,COC(=O)c1ccc(C2c3c(oc4cc(C)c(C)cc4c3=O)C(=O)N2c2nccs2)cc1 (stereo not shown),2.1
15,CCOc1ccc(-c2nc3s/c(=C\c4ccc(C)o4)c(=O)n3n2)cc1,2.17
16,Cc1cc(C)n2nc(CNS(=O)(=O)c3c(F)c(F)c(F)c(F)c3F)nc2n1,-2.17
17,COc1ccccc1C(=O)Nc1cccc(Cl)c1C,0.467
18,O=C(c1cc2n(n1)C(C(F)(F)F)CC(c1ccc(Br)cc1)N2)N1CCOCC1 (stereo not shown),-4.12
19,FC(F)(F)c1ccccc1CN1CCN(Cc2ccco2)CC1,-6.36
20,CN1CCN(C(c2ccccn2)c2ccc3cccnc3c2O)CC1 (stereo not shown),-3.33
21,COC(=O)c1sc2nc(-c3cccs3)cc(C(F)(F)F)c2c1N,0.912
22,CCCCCc1ccc(CC(=O)O)cc1,2.7
23,CCN(CC)C(=O)C1CCN(S(=O)(=O)c2ccccc2)CC1,4.28
24,COc1cc(OC)cc(-c2cc3nc(C)c(CCC(=O)NCCC4=CCCCC4)c(C)n3n2)c1,-0.465
25,CCOC(=O)c1c(S(=O)(=O)N2CCC(C)CC2)c(C)n(C)c1C,2.01

row,SMILES,% Inhibition @ 10 uM [%]
1,COc1ccc(/C=N/OCC(=O)N2CC3(C)CC2CC(C)(C)C3)cc1 (stereo not shown),3.59
2,O=C1N/C(=C/c2ccc(Cl)cc2Cl)C(=O)N1c1ccccc1,-1.63
3,CS(=O)(=O)c1ccc2nc(NC(=O)c3cccc(Cl)c3)sc2c1,6.19
4,CN(Cc1ccccc1)C(=O)c1ccco1,-0.687
5,O=S(=O)(c1ccc(Cl)cc1)N(CCCN1CCOCC1)Cc1cccs1,-4.97
6,c1ccc(OCC2=NN=C(COc3ccccc3)NN2)cc1,-5.28
7,CN(C)CCCNC(=O)c1cccc(COc2cccc3ccccc23)c1,-0.478
8,O=S(=O)(NCCc1ccncc1)c1ccc(F)cc1,0.13
9,Cn1c2c(c(=O)n(C)c1=O)C(C(F)(F)F)(C(F)(F)F)NC(Cc1ccccc1)=N2,-0.132
10,Cc1ccc(OCC(=O)N(Cc2ccc(C(C)C)cc2)C2CCS(=O)(=O)C2)cc1 (stereo not shown),-1.33
11,CC(C)(C)O[C@H]1CCC[C@H]2CC(=O)CC[C@@]21C,2.51
12,CCOc1ccc(N2C(=O)CC(N3CCCC(C)C3)C2=O)cc1 (stereo not shown),0.138
13,COc1ccc(-c2nc3n(n2)C(c2ccc(Cl)cc2)C2=C(O)CCCC2=N3)cc1OC (stereo not shown),3.59
14,CCc1c(O)nc(SC(C)CC)n(C(C)CC)c1=O (stereo not shown),-6.12
15,CC(C)NC(=O)c1cnn2c1NC(c1cccs1)CC2C(F)(F)F (stereo not shown),-8.38
16,CCc1ccc(Cc2cnc(NC(=O)c3cc4ccccc4c(=O)o3)s2)cc1,3.54
17,CCC(C)NC(=O)c1ccc(C2SCC(=O)N2CCc2ccccc2)cc1 (stereo not shown),1.94
18,CN1CC[C@@]2(O)CCCC[C@@H]2[C@H]1c1cc([N+](=O)[O-])ccc1O,-2.32
19,Cc1ccccc1OCCCOc1ccccc1/C=C1\NC(=O)NC1=O,-3.75
20,Cc1ccc(S(=O)(=O)N2CCN(Cc3noc(CCC(=O)N4CCCC4)n3)CC2)c(C)c1,0.00226
21,N#C/C(=C/Nc1ccccc1)c1nc(-c2cccc(Br)c2)cs1,0.317
22,CC(C)C[C@H](NC(=O)OC(C)c1ccccc1)C(=O)NCC#N (stereo partly shown),-4.72
23,Brc1ccc(CNC23CN4CN(CN(C4)C2)C3)cc1,2.22
24,O=C(NCc1ccccc1C(F)(F)F)C1CCN(c2cnccn2)CC1,5.54
25,Cc1nc2c(c(C)c1CCC(=O)NCC1CCN(CCc3cccs3)CC1)c(=O)n(C)c(=O)n2C,-1.3

row,SMILES,% Inhibition @ 10 uM [%]
1,O=C1NC(c2ccc(C(=O)O)cc2)C(C(=O)c2cccs2)C(O)(C(F)(F)F)N1 (stereo not shown),-0.641
2,COc1ccc(Cc2nc3ccccc3n2C(C)C)cc1,-2.28
3,COc1ccc2c3c(ccc2c1)C1CCC(=O)N1CC3 (stereo not shown),5.42
4,Cc1ccc(Nc2nc(CC(=O)O)cs2)c(C)c1,3.65
5,c1coc(CNC2Cc3ccccc3C2)c1,5.03
6,Cc1ccc2oc(C(=O)Nc3sc4c(c3C(N)=O)CCCC4)cc(=O)c2c1,0.248
7,CC(C)N(Cc1nc(-c2ccc(Cl)cc2)no1)C(=O)N1CCOCC1,0.486
8,CCCC(=O)NCc1nc2ccccc2[nH]1,1.94
9,CC1CC(=O)C2=C(C1)OC(N)=C(C#N)C2c1cccc(Cl)c1 (stereo not shown),-6.82
10,CCc1ccc2nc(N3CCC(C(=O)NCCN(C)C)CC3)sc2c1,-5.51
11,COc1ccccc1CNC(=O)c1cnc2cc(C)ccn2c1=O,-3.44
12,CN1CCN(CCC(=O)NCc2ccccc2)CC1,2.27
13,Cc1oc2ccc(O)c(CN(C)Cc3ccccc3)c2c1C(=O)NCc1ccccc1,2.14
14,CC1(C)Cc2c(c(N3CCCC3)nc3sc4c(N5CCCC5)ncnc4c23)CO1,3.93
15,COc1cc(C(=O)NC2CCCC(C(F)(F)F)C2)cc(OC)c1OC (stereo not shown),0.52
16,CC(C)OCCCNC(=O)[C@@H](c1ccccc1)N1Cc2ccccc2C1=O,-0.465
17,O=C(NCc1ccc(Cl)cc1)C(=O)NCc1ccc(Cl)cc1,1.29
18,CCc1cc2c(=O)n(-c3ccc(Cl)cc3)c(=S)[nH]c2s1,21.1
19,COc1ccc2[nH]c(C(=O)O)c(NC(C)=O)c2c1,-3.44
20,CC(=O)N1c2ccccc2N=C2CC(C)(C)CC(O)=C2C1c1ccc(Br)cc1 (stereo not shown),1.02
21,Cc1ccccc1OCCn1c(C(O)c2ccccc2)nc2ccccc21 (stereo not shown),2.73
22,CCN1CCC(Nc2ccc(SC)cc2)CC1,-5.59
23,COc1ccc(C2=NS(=O)(=O)N(C)C(C(=O)N3CCN(C(=O)c4ccco4)CC3)=C2)cc1,-2.84
24,COc1ccc(/C=C2\N=C(c3ccc(-c4ccccc4)cc3)OC2=O)c(OC)c1OC,2.98
25,COc1ccc(/C=C2/NC(=O)N(Cc3ccccc3)C2=O)cc1Cl,6.68
